In the supplement of paper PMC9446081:
About 220 (0.56%) of roughly 39,000 compounds showed activity. This is one part of the list.

Tested on: Escherichia coli K-12 BW25113
Test: relative growth (OD600 normalised to plate interquartile mean) (fraction); higher = less growth inhibition, active = 0.2 or less
Settings: 50 µM; LB; incubation time: overnight (16-24 h)
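Further: static incubation at 37 °C against the wild-type strain, values averaged over two biological replicates.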

| SMILES | relative growth |
| --- | --- |
| Cc1noc(C)c1S(=O)(=O)N(C)C[C@@H]1Oc2ccc(NS(=O)(=O)c3ccccc3)cc2CC(=O)N([C@@H](C)CO)C[C@@H]1C | inactive: 0.991 |
| Cn1cnc(S(=O)(=O)N[C@H]2C=C[C@H](CC(=O)N3CCN(c4ccccc4)CC3)O[C@@H]2CO)c1 | inactive: 0.984 |
| C[C@H]1CN([C@@H](C)CO)C(=O)Cc2cc(NC(=O)CCN3CCOCC3)ccc2O[C@H]1CN(C)Cc1ccc(C(=O)O)cc1 | inactive: 1.01 |
| CC(C)NC(=O)Nc1ccc2c(c1)C(=O)N([C@@H](C)CO)C[C@@H](C)[C@@H](CN(C)C(=O)NC1CCCCC1)O2 | inactive: 1.03 |
| CC(=O)O[C@@H]1[C@@H]2OC(=O)[C@H](OC(C)=O)[C@@H]2O[C@H]1n1ccc(=O)[nH]c1=O | inactive: 1.02 |
| C[C@H](CO)N1C[C@H](C)[C@@H](CN(C)Cc2ccc(C(=O)Nc3ccccc3N)cc2)Oc2ccc(NS(=O)(=O)c3ccc(Cl)cc3)cc2C1=O | inactive: 1.01 |
| Cc1ccc(S(=O)(=O)Nc2ccc3c(c2)C(=O)N([C@H](C)CO)C[C@H](C)[C@H](CN(C)C(=O)CCC(F)(F)F)OCCCC[C@@H](C)O3)cc1 | inactive: 0.99 |
| Nn1c(-c2ccncc2)nncc1=O | inactive: 0.988 |
| O=C(C[C@@H]1C[C@H]2c3cc(NS(=O)(=O)c4ccccc4)ccc3O[C@H]2[C@H](CO)O1)NCC(F)(F)F | inactive: 1 |
| C[C@H](CO)N1C[C@H](C)[C@H](CN(C)C(=O)Nc2cccc3ccccc23)Oc2ncc(C#CCC3CCCC3)cc2C1=O | inactive: 1.01 |
| CN1C[C@H](O)COC[C@H]2O[C@@H](CC(=O)N3CCN(c4ccccc4)CC3)CC[C@@H]21 | inactive: 1.01 |
| Cc1ccc(S(=O)(=O)Nc2cccc3c2O[C@@H](CN(C)Cc2ccc(C(F)(F)F)cc2)[C@H](C)CN([C@@H](C)CO)C3=O)cc1 | inactive: 1.05 |
| C[C@@H]1CN([C@H](C)CO)C(=O)c2cccc(NC(=O)Nc3ccc(F)cc3)c2O[C@@H]1CN(C)S(=O)(=O)c1cn(C)cn1 | inactive: 1 |
| COc1ccc(S(=O)(=O)Nc2cccc3c2O[C@@H](CN(C)S(=O)(=O)c2c(C)noc2C)[C@H](C)CN([C@H](C)CO)C3=O)cc1 | inactive: 1.02 |
| CN(C)CCCNC(=O)C[C@H]1CC[C@H]2[C@@H](COC[C@H](O)CN2S(=O)(=O)c2ccccc2)O1 | inactive: 1.01 |
| O=c1c(O)c(-c2ccc(O)c(O)c2)oc2c(OC3OC(CO)C(O)C(O)C3O)c(O)cc(O)c12 (configuration not stated) | inactive: 0.894 |
| CO[C@H]1O[C@H](COS(=O)(=O)O)[C@@H](O[C@@H]2O[C@@H](C(=O)O)[C@@H](O[C@H]3O[C@H](COS(=O)(=O)O)[C@@H](O[C@@H]4O[C@H](C(=O)O)[C@@H](O[C@H]5O[C@H](COS(=O)(=O)O)[C@@H](O)[C@H](O)[C@H]5NS(=O)(=O)O)[C@H](O)[C@H]4O)[C@H](OS(=O)(=O)O)[C@H]3NS(=O)(=O)O)[C@H](O)[C@H]2OS(=O)(=O)O)[C@H](O)[C@H]1NS(=O)(=O)O | inactive: 0.988 |
| Cc1noc(C)c1NC(=O)Nc1ccc2c(c1)C(=O)N([C@H](C)CO)C[C@@H](C)[C@@H](CN(C)Cc1ccc(-c3ccccc3)cc1)O2 | inactive: 0.944 |
| C[C@@H]1CCCCO[C@H](CN(C)C(=O)NC2CCCCC2)[C@H](C)CN([C@H](C)CO)C(=O)c2cc(NC(=O)Nc3cccc4ccccc34)ccc2O1 | inactive: 1.02 |

| SMILES | relative growth |
| --- | --- |
| COCC(=O)Nc1ccc2c(c1)C(=O)N(C)[C@H]1CC[C@@H](CC(=O)NCc3ccccc3Cl)O[C@@H]1CO2 | inactive: 1.04 |
| C[C@H](CO)N1C[C@H](C)[C@H](CN(C)C(=O)c2cccnc2)Oc2ncc(-c3ccc(C(=O)N(C)C)cc3)cc2C1=O | inactive: 1.01 |
| COc1ccc(CN(C)C[C@H]2OCCCC[C@H](C)Oc3ccc(NC(=O)NC(C)C)cc3C(=O)N([C@H](C)CO)C[C@H]2C)cc1 | inactive: 0.982 |
| Cc1noc(C)c1S(=O)(=O)Nc1ccc2c(c1)C(=O)N([C@H](C)CO)C[C@H](C)[C@H](CN(C)C(=O)NC1CCCCC1)O2 | inactive: 0.99 |
| C[C@@H]1CN([C@@H](C)CO)C(=O)c2cccc(NC(=O)NC3CCCCC3)c2O[C@@H]1CN(C)S(=O)(=O)c1cn(C)cn1 | inactive: 1.02 |
| O=C(C[C@H]1C[C@@H]2c3cc(NS(=O)(=O)c4ccc(F)cc4)ccc3O[C@@H]2[C@H](CO)O1)NCc1ccccc1 | inactive: 0.987 |
| Cc1ccc(S(=O)(=O)N(C)C[C@@H]2OCCCC[C@@H](C)Oc3ccc(NC(=O)C4CCCCC4)cc3C(=O)N([C@H](C)CO)C[C@@H]2C)cc1 | inactive: 1.02 |
| C[C@H](CO)N1C[C@H](C)[C@@H](CN(C)Cc2ccccc2F)Oc2cc(C#CCN(C)C)ccc2S1(=O)=O | inactive: 1.03 |
| C[C@@H]1CCCCO[C@H](CN(C)S(=O)(=O)c2ccccc2)[C@@H](C)CN([C@H](C)CO)C(=O)c2cc(NC(=O)CCC(F)(F)F)ccc2O1 | inactive: 0.999 |
| C[C@H](NC(=O)N(C)C[C@H]1OCc2ccccc2-c2ccccc2C(=O)N([C@H](C)CO)C[C@@H]1C)c1ccccc1 | inactive: 1 |
| COc1ccc(S(=O)(=O)Nc2ccc3c(c2)C(=O)N([C@@H](C)CO)C[C@@H](C)[C@@H](CN(C)C(=O)Nc2c(C)noc2C)OCCCC[C@@H](C)O3)cc1 | inactive: 0.997 |
| O=C(N[C@@H](c1ccc2c(c1)OCO2)c1ccccn1)C1CCN(CCOc2ccc(Cl)cc2Cl)CC1 | inactive: 0.965 |
| CC(C)CC#Cc1ccc2c(c1)O[C@@H](CN(C)C(=O)NC1CCCC1)[C@@H](C)CN([C@H](C)CO)S2(=O)=O | inactive: 1.05 |
| C[C@@H]1CCCCO[C@@H](CN(C)S(=O)(=O)c2ccc(F)cc2)[C@H](C)CN([C@@H](C)CO)C(=O)c2cc(NC(=O)c3ccccc3)ccc2O1 | inactive: 1.02 |
| O=C(COP(=O)(O)O)[C@H](O)[C@@H](O)COP(=O)(O)O | inactive: 1 |
| C[C@@H]1CN([C@H](C)CO)C(=O)c2cc(C#CCN(C)C)cnc2O[C@@H]1CN(C)Cc1cccc(C(=O)O)c1 | inactive: 0.993 |
| C[C@@H]1CN([C@@H](C)CO)C(=O)c2cccc(NC(=O)Nc3cccc4ccccc34)c2O[C@@H]1CN(C)S(=O)(=O)c1ccc(Cl)cc1 | inactive: 1.03 |
| CN(C)CC(=O)N[C@H]1CC[C@H](CCNS(=O)(=O)c2ccccc2)O[C@H]1CO | inactive: 1 |
| O=C(C[C@@H]1CC[C@@H]2[C@H](COC[C@@H](O)CN2S(=O)(=O)c2ccc(Cl)cc2)O1)NCCN1CCCCC1 | inactive: 1.02 |

| SMILES | relative growth |
| --- | --- |
| O=C(C[C@H]1C=C[C@@H](NC(=O)C2CCC2)[C@H](CO)O1)NCCCN1CCOCC1 | inactive: 0.986 |
| CC(C)NC(=O)N1Cc2cc(C(=O)NC3Cc4ccccc4C3)nc(-c3cccc(-c4cccnc4)c3)c2[C@H]1CCO | inactive: 0.995 |
| CS(=O)(=O)CCOC(=O)C1=CC(CCCO)=C[C@@H](c2ccc(CN3CCCC3)cc2)N(Cc2sc3ccccc3c2Cl)C=C1C(=O)OCCS(C)(=O)=O | inactive: 0.947 |
| C[C@@H]1CN([C@H](C)CO[Si](C)(C)C(C)(C)C)C(=O)c2cc(NC(=O)C3CCCCC3)ccc2O[C@H]1CN(C)C(=O)c1ccc(Cl)cc1 | inactive: 0.998 |
| C[C@@H]1CN([C@@H](C)CO)C(=O)c2cc(-c3cccc(C(=O)N(C)C)c3)cnc2O[C@H]1CN(C)S(=O)(=O)c1ccccc1 | inactive: 1.01 |
| CC/N=C1\S[C@H](C(N)=O)CC(=O)N1CC | inactive: 1.02 |
| CC(=O)OCC(=O)C1(O)CCC2C3CCC4=CC(=O)C=CC4(C)C3(F)C(O)CC21C (configuration not stated) | inactive: 1.16 |
| C[C@H](CO)N1C[C@H](C)[C@H](CN(C)Cc2ccc(Cl)c(Cl)c2)Oc2ccc(NS(=O)(=O)c3cccs3)cc2C1=O | inactive: 1.01 |
| NCC(=O)Nc1ccc(F)c(F)c1F | inactive: 1.01 |
| C[C@@H]1CCCCO[C@@H](CN(C)S(=O)(=O)c2ccc(Cl)cc2)[C@@H](C)CN([C@H](C)CO)C(=O)c2cc(NC(=O)C3CCCCC3)ccc2O1 | inactive: 1 |
| CNCc1ccccc1.Cl | inactive: 0.927 |
| C[C@@H]1CCCCO[C@H](CN(C)C(=O)Nc2ccc3c(c2)OCO3)[C@H](C)CN([C@@H](C)CO)C(=O)c2cc(NC(=O)Nc3cccc4ccccc34)ccc2O1 | inactive: 1.01 |
| CN(C)C(=O)CN1CCCN(CCn2nc3ccccn3c2=O)CC1 | inactive: 1.02 |
| C[C@H](CO)N1C[C@H](C)[C@H](CN(C)CC2CCOCC2)Oc2ncc(C#CCc3ccccc3)cc2C1=O | inactive: 1.02 |
| C[C@@H]1CN([C@@H](C)CO)C(=O)c2cc(NC(=O)Nc3ccc(C(F)(F)F)cc3)ccc2O[C@H]1CN(C)Cc1ccc(-c2ccccc2)cc1 | inactive: 1.03 |
| C[C@@H](NC(=O)C[C@H]1C=C[C@H](NC(=O)CN2CCOCC2)[C@@H](CO)O1)c1ccccc1 | inactive: 0.922 |
| Cc1ccc(S(=O)(=O)Nc2ccc3c(c2)C(=O)N([C@@H](C)CO)C[C@@H](C)[C@@H](CN(C)C(=O)Nc2ccc(C(F)(F)F)cc2)OCCCC[C@H](C)O3)cc1 | inactive: 1.02 |
| Cc1ccc(S(=O)(=O)N(C)C[C@@H]2Oc3ccc(NS(=O)(=O)c4ccccc4)cc3CC(=O)N([C@H](C)CO)C[C@@H]2C)cc1 | inactive: 1.01 |
| CC(=O)OC1CCC2(C)C(CC(OC(C)=O)C3(C)C2CCC2(C)C(c4ccoc4)OC(=O)C4OC423)C1(C)C (stereo not drawn) [3beta-ACETOXYDEOXODIHYDROGEDUNIN] | inactive: 1.06 |
